By IC50 is meant the dose at which the fit gives 50% viability; fits outside the tested doses are given as limits. AUC is the area under the same curve over the 256-fold range up to the top dose, as a fraction: 1 means no effect, lower means more sensitive. For part of these data: The top dose, if marked as inferred, comes from the curve model; the source does not state it. For part of these data: Drugs with an entry number were screened twice under separate entries, and the two screens often disagree.
Experiments:
Test in all cases: Viability of human cancer cell lines after 72 h of drug (GDSC screen)
[1] = compound: Cc1ccc(NC(=O)c2cccc(C(C)(C)C#N)c2)cc1Nc1ccc2ncn(C)c(=O)c2c1 [AZ628]; conditions: top dose 4 µM; top dose inferred
Method: (§1)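 Human cancer cell lines in 384-well plates, medium with 10% serum, drug for 72 h over a 256-fold dose range (nine 2-fold or five 4-fold steps up to the top dose). Adherent lines were fixed and stained with the nucleic acid dye Syto60, suspension lines read with resazurin; signal relative to control wells, capped at 0 and 100%. One two-parameter sigmoid per drug and line, fitted in a mixed model over all curves with the slope shared within a line.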

[2] = compound: Cn1cnc2c(F)c(Nc3ccc(Br)cc3Cl)c(C(=O)NOCCO)cc21 [AZD6244]; conditions: top dose 4 µM; screen: GDSC drug entry 1498; top dose inferred
Method: as §1

[3] = compound: N#CC(c1ccnc(NCCc2cccnc2)n1)c1nc2ccccc2s1 [AS601245]; conditions: top dose 8 µM; top dose inferred
Method: as §1

[4] = compound: NC(=O)C1CCCc2c1[nH]c1ccc(Cl)cc21 [EX-527]; conditions: top dose 20 µM
Method: as §1

[5] = compound: Nc1ccc(C(=O)Nc2cccc(-c3nc(N4CCOCC4)c4oc5ncccc5c4n3)c2)cn1 [YM201636]; conditions: top dose 5.12 µM; top dose inferred
Method: as §1

Cell Line | AUC [1] | IC50 [1] | AUC [2] | IC50 [2] | AUC [3] | IC50 [3] | AUC [4] | IC50 [4] | AUC [5] | IC50 [5]
GI-ME-N (neuroblastoma, adherent) | 0.601 | 0.524 µM | 0.644 | 0.725 µM | 0.927 | > 8 µM | 0.974 | > 20 µM | 0.822 | 4.57 µM
GOTO (neuroblastoma, adherent) | 0.869 | > 4 µM | 0.974 | > 4 µM | 0.928 | > 8 µM | 0.982 | > 20 µM | 0.833 | 3.96 µM
GR-ST (lymphoblastic leukaemia, suspension) | 0.878 | > 4 µM | 0.977 | > 4 µM | 0.839 | 7.23 µM | 0.972 | > 20 µM | 0.714 | 1.48 µM
GRANTA-519 (B-cell lymphoma, suspension) | 0.982 | > 4 µM | 0.99 | > 4 µM | 0.98 | > 8 µM | 0.988 | > 20 µM | 0.953 | > 5.12 µM
GT3TKB (stomach, adherent) | 0.974 | > 4 µM | 0.757 | 1.23 µM | 0.828 | 4.15 µM | 0.985 | > 20 µM | 0.984 | > 5.12 µM
H9 (lymphoid neoplasm, suspension) | 0.765 | 1.22 µM | 0.671 | 0.68 µM | 0.932 | > 8 µM | 0.991 | > 20 µM | 0.876 | 3.59 µM
H-EMC-SS (chondrosarcoma, adherent) | 0.783 | 2.23 µM | 0.542 | 0.337 µM | 0.865 | > 8 µM | 0.974 | > 20 µM | 0.848 | > 5.12 µM
HA7-RCC (kidney, adherent) | 0.985 | > 4 µM | 0.878 | > 4 µM | 0.874 | > 8 µM | 0.983 | > 20 µM | 0.774 | 2.22 µM
HAL-01 (lymphoblastic leukaemia, suspension) | 0.851 | 2.53 µM | 0.908 | > 4 µM | 0.869 | 5.99 µM | 0.989 | > 20 µM | 0.842 | 2.99 µM
HC-1 (hairy cell leukaemia, suspension) | 0.95 | > 4 µM | 0.903 | > 4 µM | 0.858 | 6.17 µM | 0.984 | > 20 µM | 0.823 | 2.87 µM
HCC1187 (breast, suspension) | 0.896 | > 4 µM | 0.972 | > 4 µM | 0.722 | 2.06 µM | 0.985 | > 20 µM | 0.919 | > 5.12 µM
HCC1500 (breast, adherent) | 0.937 | > 4 µM | 0.973 | > 4 µM | 0.889 | > 8 µM | 0.986 | > 20 µM | 0.976 | > 5.12 µM
HCC2157 (breast, suspension) | 0.944 | > 4 µM | 0.983 | > 4 µM | 0.872 | > 8 µM | 0.987 | > 20 µM | 0.987 | > 5.12 µM
HCC2218 (breast, suspension) | 0.983 | > 4 µM | 0.981 | > 4 µM | 0.941 | > 8 µM | 0.979 | > 20 µM | 0.857 | > 5.12 µM
HCC2998 (large intestine, adherent) | 0.504 | 0.257 µM | 0.34 | 0.0914 µM | 0.744 | 2.44 µM | 0.988 | > 20 µM | 0.963 | > 5.12 µM
HD-MY-Z (Hodgkin lymphoma, adherent) | 0.795 | 1.87 µM | 0.728 | 1.11 µM | 0.88 | > 8 µM | 0.981 | > 20 µM | 0.646 | 0.811 µM
HDLM-2 (Hodgkin lymphoma, suspension) | 0.964 | > 4 µM | 0.976 | > 4 µM | 0.875 | 7.67 µM | 0.988 | > 20 µM | 0.989 | > 5.12 µM
HEL (acute myeloid leukaemia, semi-adherent) | 0.957 | > 4 µM | 0.989 | > 4 µM | 0.848 | 4.49 µM | 0.989 | > 20 µM | 0.845 | 2.81 µM
HOP-62 (lung adenocarcinoma, adherent) | 0.877 | > 4 µM | 0.777 | 1.6 µM | 0.844 | 5.69 µM | 0.987 | > 20 µM | 0.837 | 3.42 µM
HSC-39 (stomach, suspension) | 0.951 | > 4 µM | 0.972 | > 4 µM | 0.984 | > 8 µM | 0.975 | > 20 µM | 0.989 | > 5.12 µM
HT (B-cell lymphoma, suspension) | 0.967 | > 4 µM | 0.988 | > 4 µM | 0.883 | 7.39 µM | 0.979 | > 20 µM | 0.8 | 2.25 µM

— the supplement of paper PMC4967469
